Test results: the antibiotic and cytotoxicity screens of Wong et al. (2023)
The list shows a part of the results.

Columns and labels:
HSkMC = human skeletal muscle cells; experiment: cytotoxicity call (relative viability < 0.9); details: 10 µM
HepG2 = experiment: cytotoxicity call (relative viability < 0.9); details: 10 µM
S. aureus RN4220 = experiment: growth inhibition call (relative growth <= 0.2); details: 50 µM

Structure (SMILES) | cytotoxicity call (HSkMC) | cytotoxicity call (HepG2) | growth inhibition call (S. aureus RN4220)
O=C(N/N=C/[C@@H](O)[C@@H](O)[C@H](O)[C@H](O)CO)c1ccccn1 | inactive | inactive | inactive
C[C@@H]1CN([C@H](C)CO)C(=O)Cc2cc(NS(=O)(=O)c3cccs3)ccc2O[C@@H]1CN(C)S(=O)(=O)c1cn(C)cn1 | inactive | inactive | inactive
COc1ccc(CN(C)C[C@@H]2OCCCC[C@H](C)Oc3ccc(NC(=O)Nc4cccc5ccccc45)cc3C(=O)N([C@@H](C)CO)C[C@H]2C)cc1 | active | active | inactive
C[C@@H]1CCCCO[C@H](CN(C)CC2CCCCC2)[C@H](C)CN([C@H](C)CO)C(=O)c2cc(NS(=O)(=O)c3ccccc3)ccc2O1 | inactive | inactive | inactive
C[C@H]1CCCCO[C@H](CN(C)Cc2ccccc2)[C@@H](C)CN([C@@H](C)CO)C(=O)c2cc(NC(=O)c3ccccc3)ccc2O1 | inactive | inactive | inactive
COc1ccc(NC(=O)N(C)C[C@@H]2OCCCC[C@H](C)Oc3ccc(NC(=O)NC(C)C)cc3C(=O)N([C@H](C)CO)C[C@@H]2C)cc1 | inactive | inactive | inactive
O=C(CN1CCOCC1)N[C@H]1CC[C@@H](CCNC(=O)C2CCCCC2)O[C@@H]1CO | inactive | inactive | inactive
CO[C@@H](CN(C)C(=O)c1ccc2c(c1)OCO2)[C@H](C)CN([C@@H](C)CO)S(=O)(=O)c1ccc(Cl)cc1 | inactive | inactive | inactive
COc1ccc(N2CCn3c2nnc(C(=O)NCCO)c3=O)cc1 | inactive | inactive | inactive
